Test results published in paper PMC4336329 (PLoS ONE, 2015).
About 14,000 (4.5%) of roughly 310,000 compounds showed an effect of 50% or more. The effect is printed as a negative number. The list shows a part of the results.

Each molecule was assayed against human ether-à-go-go-related gene (hERG) potassium channel (human, UniProt Q12809) (assay: primary screen, population patch clamp on CHO cells stably expressing hERG).
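Note: peak tail current of the secondary pulse compared with the same well before compound.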

Sequence of human ether-à-go-go-related gene (hERG) potassium channel (Q12809 whole entry, looked up): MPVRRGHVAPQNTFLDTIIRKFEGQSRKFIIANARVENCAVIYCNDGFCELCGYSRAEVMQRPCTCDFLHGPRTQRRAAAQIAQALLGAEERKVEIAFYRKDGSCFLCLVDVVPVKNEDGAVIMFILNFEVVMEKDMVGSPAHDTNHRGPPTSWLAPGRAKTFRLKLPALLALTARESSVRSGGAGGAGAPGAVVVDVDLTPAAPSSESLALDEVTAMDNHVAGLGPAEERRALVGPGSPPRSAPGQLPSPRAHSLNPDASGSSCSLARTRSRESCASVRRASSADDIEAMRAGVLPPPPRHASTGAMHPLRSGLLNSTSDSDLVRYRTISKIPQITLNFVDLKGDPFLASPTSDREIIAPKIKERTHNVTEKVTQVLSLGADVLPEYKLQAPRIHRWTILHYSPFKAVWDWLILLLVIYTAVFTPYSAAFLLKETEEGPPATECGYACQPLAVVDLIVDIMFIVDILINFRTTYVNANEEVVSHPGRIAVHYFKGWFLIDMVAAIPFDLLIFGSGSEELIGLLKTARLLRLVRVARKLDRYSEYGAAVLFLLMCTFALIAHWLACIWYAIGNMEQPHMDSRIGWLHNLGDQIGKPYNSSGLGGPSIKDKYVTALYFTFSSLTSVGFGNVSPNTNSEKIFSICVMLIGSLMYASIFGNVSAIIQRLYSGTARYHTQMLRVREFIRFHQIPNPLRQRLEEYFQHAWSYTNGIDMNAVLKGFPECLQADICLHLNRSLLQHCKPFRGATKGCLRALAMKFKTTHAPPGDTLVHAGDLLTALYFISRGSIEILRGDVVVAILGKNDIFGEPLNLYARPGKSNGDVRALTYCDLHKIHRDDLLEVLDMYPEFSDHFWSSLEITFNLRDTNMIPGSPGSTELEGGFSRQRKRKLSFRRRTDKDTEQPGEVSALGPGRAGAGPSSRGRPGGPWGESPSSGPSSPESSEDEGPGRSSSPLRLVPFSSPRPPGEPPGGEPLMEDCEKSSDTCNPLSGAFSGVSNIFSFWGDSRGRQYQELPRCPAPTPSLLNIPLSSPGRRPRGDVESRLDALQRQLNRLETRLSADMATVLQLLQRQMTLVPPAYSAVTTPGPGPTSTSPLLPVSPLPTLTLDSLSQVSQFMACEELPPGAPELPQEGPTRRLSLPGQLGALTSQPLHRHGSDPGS

SMILES	hERG current change (%, negative = inhibition) at 10uM [%]
O=C(Nc1cccc(S(=O)(=O)N2CCCCCC2)c1)C1CCN(C(=O)c2ccc(Cl)cc2)CC1	-41.9
COCc1ccc([C@@H]2C[C@H]3CN(Cc4cccnc4)C(=O)[C@]34CCCN24)o1	-3.38
COc1ccc(OCC(=O)OCCN(C)C)cc1.Cl	-0.825
CC(=O)Nc1ccc(S(=O)(=O)Nc2nc3ccccc3nc2Nc2ccc(O)c(C(=O)O)c2)cc1	15.8
O=C1CC(c2ccco2)CC2=C1C1c3ccccc3C(=O)N1c1ccccc1N2 (centres unmarked)	1.37
O=C(CN1C(=O)C2CC=CCC2C1=O)Nc1ccc(OC(F)(F)F)cc1 (centres unmarked)	-14.2
CN1C(=O)N(c2ccc(Cl)cc2)C(C)(O)CC1(C)C (centres unmarked)	5.75
CCc1ccc2[nH]c(=O)c(C(c3nnnn3Cc3ccc(OC)cc3)N3CCOCC3)cc2c1 (centres unmarked)	-19.1
CN(CC(=O)N1CCN(Cc2ccccc2)CC1)C(=O)Cc1cccc2ccccc12	-19.1
c1ccc(-n2nnnc2NCCCN2CCOCC2)cc1	1.4
O=C(NCCO)c1scc2c1OCCO2	16.6
CC(C)OP(=O)(OC(C)C)C(O)c1cccnc1 (centres unmarked)	17.3
COc1cccc(CN2CCN(C(=O)c3ccc(-c4ccccc4)cc3)CC2)c1OC.O=C(O)C(=O)O	-5.41
Fc1ccc(-c2csc(NC(=S)Nc3ccccc3)n2)cc1	32.8
CCOc1ccc(C(=O)N/N=C(/C)C2C(=O)c3ccccc3C2=O)cc1	9.02
COCCNC(=O)c1onc(CSc2cc(C)cc(C)c2)c1C(=O)NCCOC	-7.73
COc1cccc(CNC(=O)CCNS(=O)(=O)c2ccc3c(c2)oc(=O)n3C)c1	5.43
Cc1cc(C)n(CCNS(=O)(=O)c2ccc(C)c(C)c2)n1	11.5
Fc1ccc(C(CCCn2nnc(-c3cccnc3)n2)c2ccc(F)cc2)cc1	-16.5
CC(OC(=O)Nc1cccc(Cl)c1)C(=O)O (centres unmarked)	21.2
O=C(/C=C/Nc1ccc(S(=O)(=O)Nc2ncccn2)cc1)c1cccs1	4.26
C=CCS(=O)(=O)N1CCCC(C(=O)c2cccc(Cl)c2)C1 (centres unmarked)	5.16

SMILES	hERG current change (%, negative = inhibition) at 10uM [%]
Cc1ccccc1-c1nc(CN2CCC(C(=O)O)CC2)c(C)o1	-18.6
CCN(CC)CCN1C(=O)C(=O)/C(=C(/O)c2ccc3c(c2)CC(C)O3)C1c1ccc(OC)cc1 (centres unmarked)	-3.73
Cc1ccc(S(=O)(=O)N(C)C)cc1NC(=O)COC(=O)C1CCN(S(=O)(=O)c2cccs2)CC1	-81.9
O=C(CSc1nccn1Cc1ccccc1)Nc1ccccc1	12.4
CCCc1cc(=O)oc2cc(OCC(=O)NCCCN3CCCC3=O)ccc12	0.636
COc1cccc(CN2CCN(Cc3cc(OC)c(OC)cc3OC)CC2)c1.O=C(O)C(=O)O	-29.1
CCN(CC)C(=O)Oc1ccc2c(=O)c(-c3ccccc3)coc2c1	0.84
NC(Cc1ccccc1)c1nc(-c2ccccc2)no1 (centres unmarked)	-10.5
Cc1cc(C(C#N)c2ccccc2F)n2ncnc2n1 (centres unmarked)	2.72
CC(C)OC(=O)CCC(=O)Nc1nc2ccccc2s1	5.56
O=C(COC(=O)C1COc2ccccc2O1)Nc1ccc2c(c1)CCC2 (centres unmarked)	13.6
CCn1c(SCc2cccc(F)c2)nc2c(c1=O)SCC2	-6.33
CCN1CCN(C(=O)Cn2nc(C)n3c(cc4c(OC)cccc43)c2=O)CC1	5.58
COC(=O)C1=C(C)N(C)C(=O)NC1c1ccc(C)cc1 (centres unmarked)	-3.08
COc1ccc(C=Nc2cccc3c(=O)[nH][nH]c(=O)c23)c2ccccc12	6.37
COc1ccc(-c2[nH]ncc2/C=C(\C#N)C(=O)NC2CC2)cc1	-4.57
COC(=O)[C@@]1(Cc2ccc(F)cc2)[C@H]2c3cc(C(=O)N4CCCC4)n(CCc4ccccn4)c3C[C@H]2CN1C(=O)c1ccccc1	-64.1
Nn1c(-c2cccs2)nc2sc3c(c2c1=O)CCCC3	-4.7
CC1(O)c2ccccc2C(=O)N1Cc1ccccc1 (centres unmarked)	-23.8
Cc1cccc2cc3c(N)c(C(=O)N4CCCc5ccccc54)sc3nc12	-0.302
COc1cc2[nH]c(=O)n(CCC(=O)N3CCc4ccccc4C3)c(=O)c2cc1OC	5.04
Cc1ccc(OCc2nnc(NC(=O)OCC(C)C)s2)cc1	7.08
